# Assay results as given in the supplement of paper PMC8728848.
# This is one part of the list.
# B1: Si Bti9 1b-HA (Solanum lycopersicum) (protein)
# chain: MFESRPRSVLSLGVFVILVYLSSVPLPVNSQCNRGCDLALASFYVWRGSNLTLISEMFSTSIADIVSYNNRDNIPNQDSVIAGTRINIPFRCDCLNDGEVLGHAFPYRVKSGDTYDLVARNYSDLTTAQWMMKFNSYPENNIPNTVNLSVVVNCSCGNSDVSKDFGLFVTYPVRAEDNLTSVASAANVSEDIIRRYNPAAVSILDIGQGIIYIPGRDRNGNFPPLPTSTDGLSGGAKAPLFFNPAFLYKVVELKLAGRSRTSGYPYDVPDYAGYPYDVPDYALEVLFQ
# Legend:
# Assay in all cases: glycan array binding signal (z-score within array); higher = stronger binding
# Conditions in all cases: glycan notation: IUPAC condensed, linker removed
# [1] = target: Glc(b1-6)Glc
# Method in brief: (§1)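 The binding signal is a Z-score computed within each array and averaged over linkers. Arrays of the same protein sequence at different concentrations or buffers were also averaged together. Data originate from 3228 arrays in the Consortium for Functional Glycomics database, kept only where the protein sequence was available.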
# [2] = target: GlcA(b1-3)Gal
# Method in brief: as §1
# [3] = target: GlcA(b1-3)GlcNAc
# Method in brief: as §1
# [4] = target: GlcA(b1-6)Gal
# Method in brief: as §1
# [5] = target: GlcA3S(b1-3)Gal(b1-4)GlcNAc(b1-2)Man
# Method in brief: as §1
# [6] = target: GlcA3S(b1-3)Gal(b1-4)GlcNAc(b1-3)Gal(b1-4)Glc
# Method in brief: as §1
# [7] = target: GlcNAc(a1-3)Gal(b1-4)GlcNAc
# Method in brief: as §1
# [8] = target: GlcNAc(a1-4)Gal(b1-3)GlcNAc
# Method in brief: as §1
# [9] = target: GlcNAc(a1-4)Gal(b1-4)GalNAc
# Method in brief: as §1
# [10] = target: GlcNAc(a1-4)Gal(b1-4)GlcNAc
# Method in brief: as §1
# [11] = target: GlcNAc(a1-4)Gal(b1-4)GlcNAc(b1-3)Gal(b1-4)Glc
# Method in brief: as §1
# [12] = target: GlcNAc(a1-4)Gal(b1-4)GlcNAc(b1-3)Gal(b1-4)GlcNAc
# Method in brief: as §1
# [13] = target: GlcNAc(a1-4)Gal(b1-4)GlcNAc(b1-3)Gal(b1-4)GlcNAc(b1-3)Gal(b1-4)GlcNAc
# Method in brief: as §1
# [14] = target: GlcNAc(a1-4)Gal(b1-4)GlcNAc(b1-3)Gal(b1-4)[Fuc(a1-3)]GlcNAc(b1-3)Gal(b1-4)[Fuc(a1-3)]GlcNAc
# Method in brief: as §1
# [15] = target: GlcNAc(a1-6)Gal(b1-4)GlcNAc
# Method in brief: as §1
# [16] = target: GlcNAc(b1-2)Gal(b1-3)GalNAc
# Method in brief: as §1
# [17] = target: GlcNAc(b1-2)Man(a1-3)[GlcNAc(b1-2)Man(a1-6)]Man(b1-4)GlcNAc(b1-4)GlcNAc
# Method in brief: as §1
# [18] = target: GlcNAc(b1-2)Man(a1-3)[GlcNAc(b1-2)Man(a1-6)]Man(b1-4)GlcNAc(b1-4)[Fuc(a1-6)]GlcNAc
# Method in brief: as §1
# [19] = target: GlcNAc(b1-2)Man(a1-3)[GlcNAc(b1-4)][GlcNAc(b1-2)Man(a1-6)]Man(b1-4)GlcNAc(b1-4)GlcNAc
# Method in brief: as §1
# [20] = target: GlcNAc(b1-2)Man(a1-3)[GlcNAc(b1-4)][GlcNAc(b1-2)Man(a1-6)]Man(b1-4)GlcNAc(b1-4)[Fuc(a1-6)]GlcNAc
# Method in brief: as §1
# [21] = target: GlcNAc(b1-2)[GlcNAc(b1-4)]Man(a1-3)[GlcNAc(b1-2)Man(a1-6)]Man(b1-4)GlcNAc(b1-4)GlcNAc
# Method in brief: as §1
# [22] = target: GlcNAc(b1-2)[GlcNAc(b1-4)]Man(a1-3)[GlcNAc(b1-4)][GlcNAc(b1-2)Man(a1-6)]Man(b1-4)GlcNAc(b1-4)GlcNAc
# Method in brief: as §1
# [23] = target: GlcNAc(b1-2)[GlcNAc(b1-4)]Man(a1-3)[GlcNAc(b1-4)][GlcNAc(b1-2)[GlcNAc(b1-6)]Man(a1-6)]Man(b1-4)GlcNAc(b1-4)GlcNAc
# Method in brief: as §1
# [24] = target: GlcNAc(b1-2)[GlcNAc(b1-4)]Man(a1-3)[GlcNAc(b1-4)][GlcNAc(b1-2)[GlcNAc(b1-6)]Man(a1-6)]Man(b1-4)GlcNAc(b1-4)[Fuc(a1-6)]GlcNAc
# Method in brief: as §1
# [25] = target: GlcNAc(b1-2)[GlcNAc(b1-6)]Man(a1-6)[GlcNAc(b1-2)Man(a1-3)]Man(b1-4)GlcNAc(b1-4)GlcNAc
# Method in brief: as §1
# [26] = target: GlcNAc(b1-2)[GlcNAc(b1-6)]Man(a1-6)[GlcNAc(b1-2)Man(a1-3)]Man(b1-4)GlcNAc(b1-4)[Fuc(a1-6)]GlcNAc
# Method in brief: as §1
# [27] = target: GlcNAc(b1-2)[GlcNAc(b1-6)]Man(a1-6)[GlcNAc(b1-4)][GlcNAc(b1-2)Man(a1-3)]Man(b1-4)GlcNAc(b1-4)GlcNAc
# Method in brief: as §1
# [28] = target: GlcNAc(b1-3)Fuc
# Method in brief: as §1
# [29] = target: GlcNAc(b1-3)Gal
# Method in brief: as §1
# [30] = target: GlcNAc(b1-3)Gal(b1-3)GalNAc
# Method in brief: as §1
# [31] = target: GlcNAc(b1-3)Gal(b1-4)Glc
# Method in brief: as §1
# [32] = target: GlcNAc(b1-3)Gal(b1-4)GlcNAc
# Method in brief: as §1
# [33] = target: GlcNAc(b1-3)Gal(b1-4)GlcNAc(b1-2)Man(a1-3)[GlcNAc(b1-3)Gal(b1-4)GlcNAc(b1-2)Man(a1-6)]Man(b1-4)GlcNAc(b1-4)GlcNAc
# Method in brief: as §1
# [34] = target: GlcNAc(b1-3)Gal(b1-4)GlcNAc(b1-2)Man(a1-3)[GlcNAc(b1-3)Gal(b1-4)GlcNAc(b1-2)Man(a1-6)]Man(b1-4)GlcNAc(b1-4)[Fuc(a1-6)]GlcNAc
# Method in brief: as §1
# [35] = target: GlcNAc(b1-3)Gal(b1-4)GlcNAc(b1-2)[GlcNAc(b1-3)Gal(b1-4)GlcNAc(b1-6)]Man(a1-6)[GlcNAc(b1-3)Gal(b1-4)GlcNAc(b1-2)Man(a1-3)]Man(b1-4)GlcNAc(b1-4)GlcNAc
# Method in brief: as §1
# [36] = target: GlcNAc(b1-3)Gal(b1-4)GlcNAc(b1-3)Gal(b1-4)GlcNAc
# Method in brief: as §1
# [37] = target: GlcNAc(b1-3)Gal(b1-4)GlcNAc(b1-3)Gal(b1-4)GlcNAc(b1-2)Man(a1-3)[GlcNAc(b1-3)Gal(b1-4)GlcNAc(b1-3)Gal(b1-4)GlcNAc(b1-2)Man(a1-6)]Man(b1-4)GlcNAc(b1-4)GlcNAc
# Method in brief: as §1
# [38] = target: GlcNAc(b1-3)Gal(b1-4)GlcNAc(b1-3)Gal(b1-4)GlcNAc(b1-2)Man(a1-3)[GlcNAc(b1-3)Gal(b1-4)GlcNAc(b1-3)Gal(b1-4)GlcNAc(b1-2)Man(a1-6)]Man(b1-4)GlcNAc(b1-4)[Fuc(a1-6)]GlcNAc
# Method in brief: as §1
# [39] = target: GlcNAc(b1-3)Gal(b1-4)GlcNAc(b1-3)Gal(b1-4)GlcNAc(b1-2)[GlcNAc(b1-3)Gal(b1-4)GlcNAc(b1-3)Gal(b1-4)GlcNAc(b1-6)]Man(a1-6)[GlcNAc(b1-3)Gal(b1-4)GlcNAc(b1-3)Gal(b1-4)GlcNAc(b1-2)Man(a1-3)]Man(b1-4)GlcNAc(b1-4)[Fuc(a1-6)]GlcNAc
# Method in brief: as §1
# [40] = target: GlcNAc(b1-3)Gal(b1-4)GlcNAc(b1-3)Gal(b1-4)GlcNAc(b1-3)Gal(b1-4)GlcNAc(b1-2)Man(a1-3)[GlcNAc(b1-3)Gal(b1-4)GlcNAc(b1-3)Gal(b1-4)GlcNAc(b1-3)Gal(b1-4)GlcNAc(b1-2)Man(a1-6)]Man(b1-4)GlcNAc(b1-4)GlcNAc
# Method in brief: as §1
# [41] = target: GlcNAc(b1-3)Gal(b1-4)GlcNAc(b1-3)Gal(b1-4)GlcNAc(b1-3)Gal(b1-4)GlcNAc(b1-2)Man(a1-3)[GlcNAc(b1-3)Gal(b1-4)GlcNAc(b1-3)Gal(b1-4)GlcNAc(b1-3)Gal(b1-4)GlcNAc(b1-2)Man(a1-6)]Man(b1-4)GlcNAc(b1-4)[Fuc(a1-6)]GlcNAc
# Method in brief: as §1
# [42] = target: GlcNAc(b1-3)Gal(b1-4)GlcNAc(b1-3)Gal(b1-4)GlcNAc(b1-3)Gal(b1-4)GlcNAc(b1-2)[GlcNAc(b1-3)Gal(b1-4)GlcNAc(b1-3)Gal(b1-4)GlcNAc(b1-3)Gal(b1-4)GlcNAc(b1-6)]Man(a1-6)[GlcNAc(b1-3)Gal(b1-4)GlcNAc(b1-3)Gal(b1-4)GlcNAc(b1-3)Gal(b1-4)GlcNAc(b1-2)Man(a1-3)]Man(b1-4)GlcNAc(b1-4)[Fuc(a1-6)]GlcNAc
# Method in brief: as §1
# [43] = target: GlcNAc(b1-3)Gal(b1-4)GlcNAc(b1-3)Gal(b1-4)GlcNAc(b1-3)Gal(b1-4)GlcNAc(b1-3)Gal(b1-4)GlcNAc(b1-2)Man(a1-3)[GlcNAc(b1-3)Gal(b1-4)GlcNAc(b1-3)Gal(b1-4)GlcNAc(b1-3)Gal(b1-4)GlcNAc(b1-3)Gal(b1-4)GlcNAc(b1-2)Man(a1-6)]Man(b1-4)GlcNAc(b1-4)GlcNAc
# Method in brief: as §1
# [44] = target: GlcNAc(b1-3)Gal(b1-4)GlcNAc(b1-3)Gal(b1-4)GlcNAc(b1-3)Gal(b1-4)GlcNAc(b1-3)Gal(b1-4)GlcNAc(b1-2)Man(a1-3)[GlcNAc(b1-3)Gal(b1-4)GlcNAc(b1-3)Gal(b1-4)GlcNAc(b1-3)Gal(b1-4)GlcNAc(b1-3)Gal(b1-4)GlcNAc(b1-2)Man(a1-6)]Man(b1-4)GlcNAc(b1-4)[Fuc(a1-6)]GlcNAc
# Method in brief: as §1
# [45] = target: GlcNAc(b1-3)Gal(b1-4)GlcNAc(b1-3)Gal(b1-4)GlcNAc(b1-3)Gal(b1-4)GlcNAc(b1-3)Gal(b1-4)GlcNAc(b1-2)[GlcNAc(b1-3)Gal(b1-4)GlcNAc(b1-3)Gal(b1-4)GlcNAc(b1-3)Gal(b1-4)GlcNAc(b1-3)Gal(b1-4)GlcNAc(b1-6)]Man(a1-6)[GlcNAc(b1-3)Gal(b1-4)GlcNAc(b1-3)Gal(b1-4)GlcNAc(b1-3)Gal(b1-4)GlcNAc(b1-3)Gal(b1-4)GlcNAc(b1-2)Man(a1-3)]Man(b1-4)GlcNAc(b1-4)[Fuc(a1-6)]GlcNAc
# Method in brief: as §1
binder,measurement,setting,value
B1,glycan array binding signal (z-score),[1],0.237
same,glycan array binding signal (z-score),[2],0.093
same,glycan array binding signal (z-score),[3],-0.011
same,glycan array binding signal (z-score),[4],-0.21
same,glycan array binding signal (z-score),[5],-0.207
same,glycan array binding signal (z-score),[6],-0.157
same,glycan array binding signal (z-score),[7],-0.398
same,glycan array binding signal (z-score),[8],-0.3
same,glycan array binding signal (z-score),[9],-0.387
same,glycan array binding signal (z-score),[10],-0.529
same,glycan array binding signal (z-score),[11],-0.309
same,glycan array binding signal (z-score),[12],-0.377
same,glycan array binding signal (z-score),[13],-0.231
same,glycan array binding signal (z-score),[14],0.086
same,glycan array binding signal (z-score),[15],-0.574
same,glycan array binding signal (z-score),[16],-0.224
same,glycan array binding signal (z-score),[17],-0.29
same,glycan array binding signal (z-score),[18],1.05
same,glycan array binding signal (z-score),[19],-0.497
same,glycan array binding signal (z-score),[20],-0.354
same,glycan array binding signal (z-score),[21],-0.568
same,glycan array binding signal (z-score),[22],-0.436
same,glycan array binding signal (z-score),[23],-0.547
same,glycan array binding signal (z-score),[24],-0.537
same,glycan array binding signal (z-score),[25],-0.198
same,glycan array binding signal (z-score),[26],-0.253
same,glycan array binding signal (z-score),[27],-0.366
same,glycan array binding signal (z-score),[28],-0.381
same,glycan array binding signal (z-score),[29],-0.326
same,glycan array binding signal (z-score),[30],-0.271
same,glycan array binding signal (z-score),[31],-0.571
same,glycan array binding signal (z-score),[32],-0.5
same,glycan array binding signal (z-score),[33],-0.03
same,glycan array binding signal (z-score),[34],0.24
same,glycan array binding signal (z-score),[35],0.689
same,glycan array binding signal (z-score),[36],-0.418
same,glycan array binding signal (z-score),[37],2.7
same,glycan array binding signal (z-score),[38],0.176
same,glycan array binding signal (z-score),[39],0.039
same,glycan array binding signal (z-score),[40],-0.216
same,glycan array binding signal (z-score),[41],0.086
same,glycan array binding signal (z-score),[42],-0.157
same,glycan array binding signal (z-score),[43],-0.077
same,glycan array binding signal (z-score),[44],-0.141
same,glycan array binding signal (z-score),[45],-0.353
